{"source": "PubChem BioAssay AID485281", "about": "(National Center for Advancing Translational Sciences (NCATS), 2010)", "note": "Where “and” joins values, the source holds several entries; their conditions need not be identical. Equal values may be shown once. Out of some 350,000 compounds screened, about 260 (0.074%) were called active. The shares of active, inactive and inconclusive entries below differ from those in the screen. The call rests on the fitted dose curve; in most records, active means well fitted inhibition curve with a large enough effect; inconclusive means small, poorly fitted or top-dose-only effect; inactive means no such curve, though single readings can be large or run the other way. A potency beside an inconclusive call is a rough fit, not a confirmed value.", "data": [{"target": "Ferritin light chain (Equus caballus) (UniProt P02791)", "sequence (P02791 whole entry, looked up)": "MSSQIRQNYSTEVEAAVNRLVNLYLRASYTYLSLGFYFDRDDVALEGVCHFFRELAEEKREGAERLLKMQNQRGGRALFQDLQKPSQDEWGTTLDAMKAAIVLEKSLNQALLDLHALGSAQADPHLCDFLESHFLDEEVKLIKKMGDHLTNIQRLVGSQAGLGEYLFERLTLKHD", "assay": "qHTS Assay for Identification of Novel General Anesthetics; further: nearly all actives have a fitted effect of over 20% in size; further: potency means the concentration at half of the fitted maximal effect; tags describe the fitted curve by direction and shape; on activity change, negative = displacement: on the % scale 0 is the no-effect control and ±100 the full control effect", "conditions": "apoferritin/1-aminoanthracene competitive binding, fluorescence; activity change, negative = displacement: at 77.5 µM (top of the series)", "how_it_was_run": "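Concentration-response curves derived by four-parameter Hill fitting of normalized fluorescence, where compounds displaced 1-AMA from 10 uM horse apoferritin following a brief 10 min room-temperature incubation; propofol titration acted as positive control.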", "values": [{"molecule": "CC1(C)CC(NC(=O)CCc2nnc(CCCCc3ccccc3)o2)CCO1", "note": "(stereo not drawn)", "Potency": "inconclusive: 31.6 µM [inhibitor, partial curve]"}, {"molecule": "Cc1ccc2c(c1)c1nnc(SCC(=O)N3CCCc4ccccc43)nc1n2CC(=O)O", "Potency": "inconclusive: 7.94 µM [inhibitor, partial curve]"}, {"molecule": "O=C1C2C3C=CC(C4CC34)C2C(=O)N1/N=C/c1ccc(-c2ccc(Cl)cc2[N+](=O)[O-])o1", "note": "(stereo not drawn)", "Potency": "inconclusive: 28.2 µM [inhibitor, partial curve]"}, {"molecule": "CN(C)c1ccc(C(=C2C=CC(=[N+](C)C)C=C2)c2ccc(N(C)C)cc2)cc1", "Potency": "inconclusive: 50.1 µM [inhibitor, single point]"}, {"molecule": "O=C(CSCc1ccc(F)cc1)NCc1ccco1", "Potency": "inconclusive: 35.5 µM [inhibitor, partial curve]"}, {"molecule": "CCN(CC)S(=O)(=O)c1cc([N+](=O)[O-])ccc1NNC(=O)Nc1ccc(Cl)c(Cl)c1", "Potency": "inconclusive: 31.6 µM [inhibitor, partial curve]"}, {"molecule": "COc1ccc2[nH]c3c(=O)n(CCN4CCOCC4)cnc3c2c1", "activity change, negative = displacement": "inactive: 2.07%"}, {"molecule": "CC(C)OCCCn1c(-c2ccc(Br)cc2)c[nH]c1=S", "Potency": "inconclusive: 39.8 µM [inhibitor, single point]"}, {"molecule": "COc1ccc(S(=O)(=O)NC2CC3CCC2C3)cc1Cl", "note": "(stereo not drawn)", "Potency": "inconclusive: 28.2 µM [inhibitor, partial curve]"}, {"molecule": "CCCCn1ccnc1C(=O)c1cccc(S(=O)(=O)N2c3ccccc3CC2C)c1", "note": "(stereo not drawn)", "Potency": "inconclusive: 12.6 µM [inhibitor, partial curve]"}, {"molecule": "CO/N=C/c1ccc(Sc2ccccc2)c([N+](=O)[O-])c1", "Potency": "inconclusive: 35.5 µM [inhibitor, partial curve]"}, {"molecule": "O=[N+]([O-])c1ncccc1OCc1ccc(Cl)c(Cl)c1", "Potency": "inconclusive: 17.8 µM [inhibitor, partial curve]"}, {"molecule": "O=C(c1ccc(CNS(=O)(=O)c2ccccc2)cc1)N1CCN(Cc2ccccc2)CC1", "activity change, negative = displacement": "inactive: -22%"}, {"molecule": "c1ccc(CCSc2nccn2-c2ccccc2)cc1", "Potency": "inconclusive: 22.4 µM [inhibitor, partial curve]"}, {"molecule": "CCOc1cc(C(Nc2cc(C)ccn2)c2ccc3cccnc3c2O)ccc1OC", "note": "(stereo not drawn)", "activity change, negative = displacement": "inactive: -6.7%"}, {"molecule": "Cc1c(Cl)c(C(=O)N2CCCc3ccccc32)nn1C", "Potency": "inconclusive: 35.5 µM [inhibitor, partial curve]"}, {"molecule": "Cc1ccc(N2CCN(C(=O)c3cn(C)c4ccc(S(=O)(=O)N5CCCC5)cc4c3=O)CC2C)cc1", "note": "(stereo not drawn)", "Potency": "inconclusive: 28.2 µM [inhibitor, single point]"}, {"molecule": "COc1ccc(NC(C#N)c2ccccc2OCc2ccccc2)cc1", "note": "(stereo not drawn)", "Potency": "inconclusive: 25.1 µM [inhibitor, partial curve]"}, {"molecule": "CC(C)NC(=O)CCCc1cn(C)c2ccccc12", "activity change, negative = displacement": "inactive: -5.92%"}, {"molecule": "Cc1ccc(NC(=O)Cn2c(=O)n(Cc3ccco3)c(=O)c3sc4ccccc4c32)c(C)c1", "activity change, negative = displacement": "inactive: -12.7%"}, {"molecule": "Cc1cccc(C)c1Nc1ncnc(N)c1[N+](=O)[O-]", "activity change, negative = displacement": "inactive: -8.69%"}, {"molecule": "CCOC(=O)c1cc(C#N)c(Oc2ccc(F)cc2)nc1-c1ccccc1", "Potency": "inconclusive: 31.6 µM [inhibitor, partial curve]"}, {"molecule": "CC1CCN(c2nc3ccc(C(=O)NCCCN4CCCCC4)cc3s2)CC1", "Potency": "inconclusive: 17.8 µM [inhibitor, partial curve]"}, {"molecule": "CCSc1n[nH]c2nc3c(c(=O)n12)C1(CCCC1)Cc1ccccc1-3", "activity change, negative = displacement": "inactive: 0.56%"}, {"molecule": "CC1CCCC(C)N1C(=O)COC(=O)c1ccc(O)cc1", "note": "(stereo not drawn)", "Potency": "inconclusive: 28.2 µM [inhibitor, partial curve]"}, {"molecule": "COc1ccc(OC)c(NC(=O)COCc2cc(-c3ccco3)on2)c1", "activity change, negative = displacement": "inactive: 5.09%"}, {"molecule": "O=C(COC(=O)CNC(=O)C1CCCCC1)Nc1ccc2ccccc2c1", "Potency": "inconclusive: 14.1 µM [inhibitor, partial curve]"}, {"molecule": "Cc1ccc(NC(=O)COc2cccnc2[N+](=O)[O-])cc1S(=O)(=O)N1CCCCC1", "Potency": "inconclusive: 50.1 µM [inhibitor, single point]"}, {"molecule": "O=C(Cn1c(-c2ccccc2)noc1=O)N1CCC(Cc2ccccc2)CC1", "activity change, negative = displacement": "inactive: -12.3%"}, {"molecule": "COc1cc(/C=C2\\SC(=Nc3ccc(F)cc3)N(c3ccc(F)cc3)C2=O)ccc1OCC(=O)O", "Potency": "inconclusive: 31.6 µM [inhibitor, single point]"}, {"molecule": "CCC(C)(C)NC(=O)C(c1cccc(OC)c1OC)N(C(=O)CCC(=O)Nc1cc(C)on1)c1ccc2c(c1)OCCO2", "note": "(stereo not drawn)", "Potency": "inconclusive: 50.1 µM [inhibitor, single point]"}, {"molecule": "CCOC(=O)Cn1nnnc1C(C(C)C)N(Cc1cccs1)Cc1cc2cc(C)ccc2[nH]c1=O", "note": "(stereo not drawn)", "Potency": "inconclusive: 6.31 µM [inhibitor, full curve, poor fit]"}, {"molecule": "CC(C)(C)c1ccc(C(=O)c2c[nH]c(C(=O)O)c2)cc1", "activity change, negative = displacement": "inactive: -4.99%"}, {"molecule": "Cc1ccc(S(=O)(=O)N2C(=S)SCC2(C)C)cc1", "Potency": "inconclusive: 25.1 µM [inhibitor, partial curve]"}, {"molecule": "COc1ccc(OCCC(=O)NC2CCCCC2)cc1", "Potency": "inconclusive: 35.5 µM [inhibitor, partial curve]"}, {"molecule": "CCCn1c(C(=O)OC)cc2c1ccn2-c1ccc(F)cc1", "activity change, negative = displacement": "inactive: -11.9%"}, {"molecule": "Cc1cccc(NC(=O)C(NS(=O)(=O)c2cccc3nsnc23)c2ccccc2)c1C", "note": "(stereo not drawn)", "Potency": "inconclusive: 39.8 µM [inhibitor, single point]"}, {"molecule": "N#Cc1cccc(NC(=O)CSc2nnc(-c3n[nH]c4ccccc34)o2)c1", "activity change, negative = displacement": "inactive: -11.2%"}, {"molecule": "C=C(C)C1CC=C(CO)CC1", "note": "(stereo not drawn)", "Potency": "inconclusive: 44.7 µM [inhibitor, partial curve]"}, {"molecule": "CC(C)(C)c1ccc(NC(=O)NCc2ccco2)cc1", "Potency": "inconclusive: 22.4 µM [inhibitor, partial curve]"}, {"molecule": "O=[N+]([O-])c1cc(-c2ccc(/C=N\\n3cnnc3)o2)cc([N+](=O)[O-])c1", "Potency": "inconclusive: 39.8 µM [inhibitor, partial curve]"}, {"molecule": "CC1CN(C(=O)N2CCC(C(=O)NCc3ccccc3F)CC2)c2cc(Cl)ccc2O1", "note": "(stereo not drawn)", "Potency": "inconclusive: 3.55 µM [inhibitor, full curve]"}, {"molecule": "Clc1ccccc1COc1ccccc1-c1nnco1", "Potency": "inconclusive: 35.5 µM [inhibitor, partial curve]"}, {"molecule": "Cc1c(Cl)cccc1NC(=O)COC(=O)c1c2c(nc3ccccc13)CCN(Cc1ccccc1)C2", "Potency": "inconclusive: 17.8 µM [inhibitor, partial curve]"}, {"molecule": "Cc1cc(CN(C)C(=O)c2ccc3nc(Cc4ccccc4F)oc3c2)n[nH]1", "activity change, negative = displacement": "inactive: -12.1%"}, {"molecule": "COc1ccc(S(=O)(=O)Nc2cccc(-c3ccc(N4CCCCC4)nn3)c2)cc1F", "Potency": "inconclusive: 7.94 µM [inhibitor, partial curve]"}, {"molecule": "O=C(/C=C/Nc1ccccc1)c1ccccc1", "activity change, negative = displacement": "inactive: -10.8%"}, {"molecule": "CCN(Cc1ccncc1)C(=O)c1cc(COc2ccc(F)cc2F)on1", "Potency": "inconclusive: 31.6 µM [inhibitor, single point]"}, {"molecule": "CC(C)(C)C(=O)NC(=S)NNC(=O)c1ccc(Cl)cc1Cl", "activity change, negative = displacement": "inactive: -5.51%"}, {"molecule": "COc1ccc(-c2n[nH]c(C)c2-c2cnn(-c3ccccc3)c2)c(O)c1C", "activity change, negative = displacement": "inactive: -10.4%"}, {"molecule": "O=C(CSCc1ccc([N+](=O)[O-])cc1)NC1CCCCCC1", "Potency": "inconclusive: 20 µM [inhibitor, partial curve]"}, {"molecule": "CCCOc1ccc(/C=C2/C(=O)ON=C2C)cc1Cl", "activity change, negative = displacement": "inactive: 0.156%"}, {"molecule": "Oc1ccc(NCc2ccccc2OCc2ccccc2)cc1", "Potency": "inconclusive: 31.6 µM [inhibitor, partial curve] and inconclusive: 14.1 µM [inhibitor, partial curve]"}, {"molecule": "Cc1ccc(Nc2cc(C)nc(NCc3ccccc3)n2)cc1", "Potency": "inconclusive: 35.5 µM [inhibitor, partial curve]"}, {"molecule": "CC(C)(C)c1cc(Br)c(O)c(N=Nc2ccc(S(=O)(=O)N3CCOCC3)cc2)c1", "Potency": "inconclusive: 10 µM [inhibitor, partial curve]"}, {"molecule": "COc1ccc2c3c(cccc13)C(=O)CC2", "activity change, negative = displacement": "inactive: 64%"}, {"molecule": "CS(=O)(=O)NCCSCc1c(F)cccc1Cl", "Potency": "inconclusive: 31.6 µM [inhibitor, single point]"}, {"molecule": "FC(F)(F)c1cccc(-c2nnc(-c3ccccc3)c(N3CCOCC3)n2)c1", "Potency": "inconclusive: 35.5 µM [inhibitor, partial curve]"}, {"molecule": "COC(=O)CC1C2(C)CC34OC5(C)O[C@@]6(C7/C(=C(/OC)C(C)C)C(=O)OC(c8ccoc8)[C@@]7(C)C(OC(=O)C(C)C)C(OC)[C@]6(O5)[C@@]13C)C(OC)[C@]4(OC)C2OC(C)=O", "note": "(stereo partly drawn)", "Potency": "inconclusive: 10 µM [inhibitor, partial curve]"}, {"molecule": "CCN(CC)CCNC(=O)c1cc2c(-c3cccc(OC)c3)nn(C)c2s1", "Potency": "inactive"}, {"molecule": "O=C(NCc1ccco1)C(c1ccccc1)N(C(=O)Cc1cccs1)c1ccccc1", "note": "(stereo not drawn)", "activity change, negative = displacement": "inactive: -8.98%"}, {"molecule": "COc1cc(/C=N/NC(=O)Cc2csc(N3CCOCC3)n2)cc(OC)c1O", "Potency": "inconclusive: 25.1 µM [inhibitor, partial curve]"}, {"molecule": "Cc1cc(C(=O)c2ccccc2)nc2ccccc12", "Potency": "inconclusive: 35.5 µM [inhibitor, partial curve]"}, {"molecule": "COc1ccc(C(=O)CCc2ccccc2O)c(OC)c1", "Potency": "inconclusive: 31.6 µM [inhibitor, single point]"}, {"molecule": "COc1ccccc1CCNC(=O)C(=O)NCC1OCCN1S(=O)(=O)c1ccc(OC)c(OC)c1", "note": "(stereo not drawn)", "Potency": "inconclusive: 10 µM [inhibitor, partial curve]"}, {"molecule": "O=C(NNC(=S)Nc1cccc(Cl)c1)c1ccccc1OC(F)F", "activity change, negative = displacement": "inactive: -3.62%"}, {"molecule": "CC(C)CCNC(=O)Cn1c2c(c(-c3ccccc3Cl)cc1=O)CCC2", "Potency": "inconclusive: 28.2 µM [inhibitor, partial curve]"}, {"molecule": "O=C(NCCOc1ccc(Cl)cc1)c1ccc2ccccc2n1", "Potency": "inconclusive: 35.5 µM [inhibitor, partial curve]"}]}]}
